According to the supplement of paper PMC10126150:
Sequences with one replicate were seen in a single cluster, so their values are uncertain.

Each sequence was assayed on ATP (assay: switch fluorescence ratio, 500 uM ATP over buffer (Cy3 cluster intensity, sum of 5 cycles each) (fold (ratio)); higher = stronger signal-on switching upon ATP binding; sequences stand for … in TCGTCGGCAGCGTCAGATGTGTATAAGAGACAGTTTTTTTTTTTTTTTTTTTTTTTTT…TC). Details: aptamer strand: ATP DNA aptamer (quencher-CACCTGGGGGAGTATTGCGGAGGAAGG + anchor), 100 nM annealed; ATP concentration: 500 uM; one replicate.
How it was run: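 After annealing to 100 nM quencher-labelled ATP aptamer, Cy3-labelled switching-strand clusters on a modified Illumina MiSeq flow-cell were imaged in selection buffer. A second image followed after 15 min with 500 uM ATP at 22 °C, and five such buffer/ATP cycles were done, each separated by NaOH stripping and re-annealing. The fluorescence ratio, averaged per switch-domain sequence, is summed target-cycle over summed buffer-cycle Cy3 intensity per cluster, with clusters outside 100-1000 RFU excluded.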
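Further: ATP exposure 15 min at 22 °C before imaging.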

Q: Which switch fluorescence ratio does the source give for TAGGCCGACC here?
A: 1.07

Q: For TAGGCCGGAG, which switch fluorescence ratio is on record?
A: 1.03

Q: How did the switch fluorescence ratio turn out when TAGGCCTATC was run?
A: 0.984

Q: For TAGGCGAGT, which switch fluorescence ratio is on record?
A: 0.987

Q: For TAGGCTGCTC, which switch fluorescence ratio is on record?
A: 0.962

Q: TAGGGAAGAA was tested. Which switch fluorescence ratio did it give?
A: 1.01

Q: For TAGGGCACT, which switch fluorescence ratio is on record?
A: 0.982

Q: How did the switch fluorescence ratio turn out when TAGGGCAGCA was run?
A: 0.965

Q: TAGGGCTTTG was tested. Which switch fluorescence ratio did it give?
A: 1.01

Q: How did the switch fluorescence ratio turn out when TAGGGGA was run?
A: 1.03

Q: With TAGGGGCCGG as the sequence, how does the switch fluorescence ratio read?
A: 0.998

Q: How did the switch fluorescence ratio turn out when TAGGGGCTCA was run?
A: 1.01

Q: For TAGGGGGG, which switch fluorescence ratio is on record?
A: 0.993

Q: With TAGGGGGTGC as the sequence, how does the switch fluorescence ratio read?
A: 1.01

Q: TAGGGGTAAC was tested. Which switch fluorescence ratio did it give?
A: 1.02

Q: For TAGGGTTCGG, which switch fluorescence ratio is on record?
A: 1.01

Q: TAGGTAGGCC was tested. Which switch fluorescence ratio did it give?
A: 1.03

Q: For TAGGTATTCC, which switch fluorescence ratio is on record?
A: 0.96

Q: For TAGGTCGTCT, which switch fluorescence ratio is on record?
A: 1.04

Q: With TAGGTCTACT as the sequence, how does the switch fluorescence ratio read?
A: 1.12

Q: TAGGTCTTAC was tested. Which switch fluorescence ratio did it give?
A: 1.04

Q: For TAGGTGCGTT, which switch fluorescence ratio is on record?
A: 1.03

Q: Which switch fluorescence ratio does the source give for TAGGTGGGT here?
A: 1.01

Q: How did the switch fluorescence ratio turn out when TAGGTTGCAC was run?
A: 0.99

Q: For TAGTAATAAG, which switch fluorescence ratio is on record?
A: 0.962

Q: For TAGTACATAT, which switch fluorescence ratio is on record?
A: 1

Q: How did the switch fluorescence ratio turn out when TAGTAGATGG was run?
A: 1.03

Q: Which switch fluorescence ratio does the source give for TAGTATCGAT here?
A: 1.01

Q: How did the switch fluorescence ratio turn out when TAGTATTTAA was run?
A: 1.04

Q: With TAGTCCTGTA as the sequence, how does the switch fluorescence ratio read?
A: 1.02

Q: With TAGTCGAAC as the sequence, how does the switch fluorescence ratio read?
A: 1.05

Q: TAGTCTGACC was tested. Which switch fluorescence ratio did it give?
A: 1.03

Q: With TAGTCTGAGT as the sequence, how does the switch fluorescence ratio read?
A: 1.02

Q: For TAGTCTGCTG, which switch fluorescence ratio is on record?
A: 0.956

Q: For TAGTGCAGCC, which switch fluorescence ratio is on record?
A: 1.08

Q: With TAGTGCCATT as the sequence, how does the switch fluorescence ratio read?
A: 1.08

Q: TAGTGCCCGC was tested. Which switch fluorescence ratio did it give?
A: 0.981

Q: Which switch fluorescence ratio does the source give for TAGTGGAATG here?
A: 0.974

Q: How did the switch fluorescence ratio turn out when TAGTGGTAGC was run?
A: 0.998

Q: Which switch fluorescence ratio does the source give for TAGTGGTTGC here?
A: 1.1

Q: With TAGTGTGGCT as the sequence, how does the switch fluorescence ratio read?
A: 0.991

Q: Which switch fluorescence ratio does the source give for TAGTTACGGG here?
A: 1.01

Q: With TAGTTAGCG as the sequence, how does the switch fluorescence ratio read?
A: 1.04

Q: TAGTTGAATC was tested. Which switch fluorescence ratio did it give?
A: 0.957

Q: How did the switch fluorescence ratio turn out when TAGTTGCTTC was run?
A: 0.976

Q: TAGTTGTGGG was tested. Which switch fluorescence ratio did it give?
A: 0.99

Q: TAGTTTAGAG was tested. Which switch fluorescence ratio did it give?
A: 0.946

Q: With TAGTTTCAGG as the sequence, how does the switch fluorescence ratio read?
A: 0.973

Q: With TAGTTTCTGC as the sequence, how does the switch fluorescence ratio read?
A: 1.02

Q: TATAAAAAGG was tested. Which switch fluorescence ratio did it give?
A: 0.97

Q: TATAAAATTA was tested. Which switch fluorescence ratio did it give?
A: 0.978

Q: How did the switch fluorescence ratio turn out when TATAAAGTAG was run?
A: 1.05

Q: For TATAAAGTTC, which switch fluorescence ratio is on record?
A: 1.05

Q: TATAACGTGG was tested. Which switch fluorescence ratio did it give?
A: 0.961

Q: TATAACTACA was tested. Which switch fluorescence ratio did it give?
A: 1.07

Q: For TATAAGGAT, which switch fluorescence ratio is on record?
A: 1.02

Q: With TATAAGGTTG as the sequence, how does the switch fluorescence ratio read?
A: 0.966

Q: TATAAGTAAC was tested. Which switch fluorescence ratio did it give?
A: 1.03

Q: TATAAGTCTT was tested. Which switch fluorescence ratio did it give?
A: 0.985

Q: Which switch fluorescence ratio does the source give for TATAATAGGG here?
A: 0.957

Q: How did the switch fluorescence ratio turn out when TATAATCGTC was run?
A: 0.989

Q: How did the switch fluorescence ratio turn out when TATAATTAA was run?
A: 0.944

Q: With TATACGTGG as the sequence, how does the switch fluorescence ratio read?
A: 0.942

Q: With TATACTATGA as the sequence, how does the switch fluorescence ratio read?
A: 0.962

Q: TATACTTAGG was tested. Which switch fluorescence ratio did it give?
A: 1.06

Q: How did the switch fluorescence ratio turn out when TATACTTTTA was run?
A: 0.993

Q: With TATAGACGAG as the sequence, how does the switch fluorescence ratio read?
A: 1.05

Q: TATAGAGTTG was tested. Which switch fluorescence ratio did it give?
A: 1.04

Q: Which switch fluorescence ratio does the source give for TATAGCAATA here?
A: 5.34

Q: With TATAGCACTC as the sequence, how does the switch fluorescence ratio read?
A: 1.2

Q: With TATAGCCCCG as the sequence, how does the switch fluorescence ratio read?
A: 1.06

Q: How did the switch fluorescence ratio turn out when TATAGGCAGA was run?
A: 0.947

Q: How did the switch fluorescence ratio turn out when TATAGGCTG was run?
A: 1.03

Q: TATAGGGTT was tested. Which switch fluorescence ratio did it give?
A: 0.989

Q: How did the switch fluorescence ratio turn out when TATATAATAG was run?
A: 0.985

Q: For TATATATATA, which switch fluorescence ratio is on record?
A: 0.985

Q: TATATCGA was tested. Which switch fluorescence ratio did it give?
A: 0.984

Q: TATATCGGCG was tested. Which switch fluorescence ratio did it give?
A: 0.957

Q: For TATATCTCGC, which switch fluorescence ratio is on record?
A: 1.03

Q: With TATATGGTGC as the sequence, how does the switch fluorescence ratio read?
A: 1.07

Q: TATATTGCGA was tested. Which switch fluorescence ratio did it give?
A: 1.02

Q: Which switch fluorescence ratio does the source give for TATATTGGAC here?
A: 1.03

Q: Which switch fluorescence ratio does the source give for TATATTGTTG here?
A: 0.957

Q: Which switch fluorescence ratio does the source give for TATCACGAAT here?
A: 1.01

Q: How did the switch fluorescence ratio turn out when TATCACTCGA was run?
A: 1.03

Q: How did the switch fluorescence ratio turn out when TATCACTGCA was run?
A: 1.1

Q: Which switch fluorescence ratio does the source give for TATCAGAGTG here?
A: 1.01

Q: How did the switch fluorescence ratio turn out when TATCAGCCTG was run?
A: 1.03

Q: TATCAGTGGG was tested. Which switch fluorescence ratio did it give?
A: 1.01

Q: With TATCATCAAA as the sequence, how does the switch fluorescence ratio read?
A: 1.03

Q: TATCCATTGG was tested. Which switch fluorescence ratio did it give?
A: 1.02

Q: TATCCCATGA was tested. Which switch fluorescence ratio did it give?
A: 0.959

Q: With TATCCCTTAG as the sequence, how does the switch fluorescence ratio read?
A: 0.999

Q: For TATCCTTGAG, which switch fluorescence ratio is on record?
A: 1.06

Q: With TATCGAAACT as the sequence, how does the switch fluorescence ratio read?
A: 1

Q: Which switch fluorescence ratio does the source give for TATCGAACCC here?
A: 1.03

Q: For TATCGATTTG, which switch fluorescence ratio is on record?
A: 1.01

Q: With TATCGCTATT as the sequence, how does the switch fluorescence ratio read?
A: 0.979

Q: For TATCGGATGT, which switch fluorescence ratio is on record?
A: 1.01

Q: Which switch fluorescence ratio does the source give for TATCGGCATT here?
A: 1.03

Q: Which switch fluorescence ratio does the source give for TATCGGGAAC here?
A: 1.01

Q: With TATCGTCTAA as the sequence, how does the switch fluorescence ratio read?
A: 1.03

Q: For TATCTAGAGC, which switch fluorescence ratio is on record?
A: 1.02

Q: TATCTGAGAG was tested. Which switch fluorescence ratio did it give?
A: 0.941

Q: With TATCTGCTTA as the sequence, how does the switch fluorescence ratio read?
A: 1.03

Q: For TATCTGGAAA, which switch fluorescence ratio is on record?
A: 0.995

Q: With TATCTGGTCA as the sequence, how does the switch fluorescence ratio read?
A: 0.987

Q: TATCTGTTGC was tested. Which switch fluorescence ratio did it give?
A: 0.991

Q: With TATCTTATAA as the sequence, how does the switch fluorescence ratio read?
A: 1

Q: TATCTTTGGA was tested. Which switch fluorescence ratio did it give?
A: 0.99

Q: With TATGAAAACC as the sequence, how does the switch fluorescence ratio read?
A: 0.998

Q: How did the switch fluorescence ratio turn out when TATGAAAATA was run?
A: 0.953

Q: TATGAAAATT was tested. Which switch fluorescence ratio did it give?
A: 1

Q: With TATGAAAGTC as the sequence, how does the switch fluorescence ratio read?
A: 0.963

Q: With TATGAAGCCA as the sequence, how does the switch fluorescence ratio read?
A: 1.01

Q: For TATGAAGGTT, which switch fluorescence ratio is on record?
A: 0.974

Q: Which switch fluorescence ratio does the source give for TATGAATCTC here?
A: 0.989

Q: How did the switch fluorescence ratio turn out when TATGACGATG was run?
A: 0.982

Q: For TATGAGGTTA, which switch fluorescence ratio is on record?
A: 1.03

Q: TATGAGTAGT was tested. Which switch fluorescence ratio did it give?
A: 1.02

Q: TATGATAAGT was tested. Which switch fluorescence ratio did it give?
A: 0.945

Q: For TATGCATACT, which switch fluorescence ratio is on record?
A: 1.07

Q: How did the switch fluorescence ratio turn out when TATGCCAAAG was run?
A: 0.998

Q: How did the switch fluorescence ratio turn out when TATGCTGAAC was run?
A: 1.06

Q: Which switch fluorescence ratio does the source give for TATGCTTTCA here?
A: 1.03

Q: Which switch fluorescence ratio does the source give for TATGCTTTGC here?
A: 0.975

Q: For TATGGAAGTG, which switch fluorescence ratio is on record?
A: 0.96

Q: With TATGGACCAC as the sequence, how does the switch fluorescence ratio read?
A: 1.03

Q: Which switch fluorescence ratio does the source give for TATGGAGTAG here?
A: 0.96

Q: For TATGGAGTC, which switch fluorescence ratio is on record?
A: 0.988

Q: With TATGGCAATT as the sequence, how does the switch fluorescence ratio read?
A: 1.03

Q: Which switch fluorescence ratio does the source give for TATGGCCAAG here?
A: 1.01

Q: With TATGGGAGTG as the sequence, how does the switch fluorescence ratio read?
A: 0.995

Q: How did the switch fluorescence ratio turn out when TATGGGGT was run?
A: 0.98

Q: Which switch fluorescence ratio does the source give for TATGGTACCT here?
A: 1.03

Q: With TATGGTATGG as the sequence, how does the switch fluorescence ratio read?
A: 1

Q: Which switch fluorescence ratio does the source give for TATGGTGCAC here?
A: 0.989

Q: For TATGTAACAT, which switch fluorescence ratio is on record?
A: 1.36

Q: How did the switch fluorescence ratio turn out when TATGTACCTC was run?
A: 1.1

Q: TATGTACGG was tested. Which switch fluorescence ratio did it give?
A: 1.07

Q: Which switch fluorescence ratio does the source give for TATGTATGGC here?
A: 0.986

Q: Which switch fluorescence ratio does the source give for TATGTCCGGT here?
A: 0.978

Q: Which switch fluorescence ratio does the source give for TATGTCTGT here?
A: 1.02

Q: For TATGTGTCCG, which switch fluorescence ratio is on record?
A: 0.962

Q: Which switch fluorescence ratio does the source give for TATGTTAGCG here?
A: 1

Q: For TATGTTCTTA, which switch fluorescence ratio is on record?
A: 1.01

Q: With TATGTTTAGT as the sequence, how does the switch fluorescence ratio read?
A: 0.994

Q: With TATGTTTGCG as the sequence, how does the switch fluorescence ratio read?
A: 0.995

Q: For TATGTTTGTA, which switch fluorescence ratio is on record?
A: 1

Q: How did the switch fluorescence ratio turn out when TATGTTTTGC was run?
A: 1.01

Q: For TATTAAATGG, which switch fluorescence ratio is on record?
A: 1.06

Q: TATTAACTAA was tested. Which switch fluorescence ratio did it give?
A: 1.02

Q: How did the switch fluorescence ratio turn out when TATTACATGC was run?
A: 1.02

Q: Which switch fluorescence ratio does the source give for TATTACCGT here?
A: 1.05
